PubChem BioAssay AID651820 (National Center for Advancing Translational Sciences (NCATS), 2012)
Where “and” joins values, the source holds several entries; their conditions need not be identical. Equal entries are not always repeated. Hit rate of the full screen: of about 340,000 compounds, about 12,000 (3.5%) were called active. Inconclusive means that the source gave no clear call. Such entries were picked first, then a sample of the others. Calls come from the whole dose curve; as a rule, active = well fitted inhibition curve with a large enough effect; inconclusive = small, poorly fitted or top-dose-only effect, or another doubt; inactive = no such curve, though single readings can be large or run the other way. A potency beside an inconclusive call is a rough fit, not a confirmed value.

Assay: qHTS Assay for Inhibitors of Hepatitis C Virus (HCV)
Details: Huh7.5.1 HCVcc-Cre (HCVcc is cell-culture hepatitis C virus) infection, luciferase reporter, 44 h; activity change, negative = inhibition: at 41.8 µM (top of the series) unless noted
Outline: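 Cells seeded at 1,000/well and cultured 4 h, then compounds added followed by HCVcc-Cre virus (~0.5 moi). After 44 h further culture, luciferase substrate was added, plates held 15 min at room temperature, and luminescence read for 15 sec.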
% is set by controls: 0 for no effect and ±100 for the full control effect; potency is the fitted concentration of half-maximal effect; tags give direction and shape of the fitted curve.

| Structure (SMILES) | Potency | activity change, negative = inhibition |
| --- | --- | --- |
| Cc1ccc(-c2nnc(N3CCN(CCO)CC3)c3ccccc23)cc1 | inactive |  |
| Nc1nc(-c2ccc(Oc3ccccc3)cc2)cs1 | active: 10 µM |  |
| COc1ccc(N=CC2CCCCC2=O)c([N+](=O)[O-])c1 (stereo unspecified) | inconclusive: 31.6 µM [inhibitor, single point] |  |
| Cc1ccc(C(=O)C2CCN(CC(=O)Nc3ccccc3C)CC2)cc1 | inconclusive: 31.6 µM [inhibitor, single point] |  |
| COc1cc(/C=N/NC(=O)C(=O)/C=C2\NC3(CCCC3)Cc3ccccc32)ccc1O | inconclusive: 12.6 µM [inhibitor, partial curve] |  |
| CSc1cc(-c2ccc(Cl)cc2)n(Cc2ccccc2)c(=O)c1C#N | inconclusive: 3.16 µM [inhibitor, partial curve] |  |
| NC(=O)[C@H](Cc1cc2ccccc2s1)NC(=O)[C@@H]1CC2(CC(c3cccc(NC(=O)[C@@H]4CCC(=O)N4)c3)=NO2)CN1C(=O)/C=C/Sc1ccccc1 (stereo partly specified) | inactive |  |
| O=C(c1ccco1)N1CCN(C(=O)C(Sc2ccccc2)c2ccccc2)CC1 (stereo unspecified) | inconclusive: 12.6 µM [inhibitor, single point] |  |
| COc1ccc(C(O)c2nc3ccccc3n2C(C)C)cc1 (stereo unspecified) | inconclusive: 31.6 µM [inhibitor, single point] |  |
| Cc1cc(C)cc(NC(=O)CSc2nnc(CNC(=O)c3cccs3)o2)c1 | inactive |  |
| CCOc1ccccc1NC(=O)c1cc(Cl)ccc1NC(=O)c1ccco1 | inconclusive: 0.355 µM [inhibitor, full curve, poor fit] |  |
| CC(=O)SC(C[N+](=O)[O-])c1cn(C(C)=O)c2ccccc12 (stereo unspecified) | active: 11.2 µM |  |
| CCOc1ccccc1Nc1cc(C)nc2ccc(C)cc12 | active: 6.31 µM |  |
| O=C(Nc1nc2ccc(SC(F)F)cc2s1)c1ccc(NS(=O)(=O)c2ccc(F)c(F)c2)cc1 | inconclusive: 10 µM [inhibitor, single point] |  |
| Cc1nn(C)c(C)c1NC(=O)COc1ccc(F)cc1Br | inconclusive: 31.6 µM [inhibitor, single point] |  |
| Cc1ccc(C(=O)NCC(=O)NC23CC4CC(CC(C4)C2)C3)cc1 | inactive |  |
| CN1\C(=C/C=C/C=C/C=[N+](C)C)C(C)(C)c2ccccc21 | inactive |  |
| COc1ccc(N(CC(=O)N2CCN(c3ccc(F)cc3)CC2)S(=O)(=O)c2c(C)noc2C)cc1 | inactive |  |
| Cc1ccc(-n2cc(-c3ccc([N+](=O)[O-])cc3)[nH]c2=S)c(C)c1 | inconclusive: 7.94 µM [inhibitor, partial curve] |  |
| Cc1ccc(-c2nn(-c3ccccc3Cl)cc2C(=O)NCC2CCCO2)cc1 (stereo unspecified) | inconclusive: 3.16 µM [inhibitor, full curve] |  |
| Cc1cc(-c2ccccc2)c2nncn2n1 | inconclusive: 31.6 µM [inhibitor, single point] |  |
| COc1ccc(NC(=O)COC(=O)c2n[nH]c3ccccc23)c(OC)c1 | inconclusive: 14.1 µM [inhibitor, single point] |  |
| CCOCCCNS(=O)(=O)c1ccc(NC(=O)C2CC(=O)N(c3ccc(C)cc3)C2)cc1 (stereo unspecified) | inconclusive: 15.8 µM [inhibitor, partial curve] |  |
| O=C(COc1cccc2c1CCN(Cc1ccc(Br)cc1)C2=O)NCc1ccco1 | inconclusive: 0.562 µM [inhibitor, full curve, poor fit] |  |

| Structure (SMILES) | Potency | activity change, negative = inhibition |
| --- | --- | --- |
| COc1ccc(CN(C)C2CCCCC2)c(C)c1C | inconclusive: 12.6 µM [inhibitor, single point] |  |
| CCOc1ccc(OCCOCCN2CCOCC2)cc1 | inactive |  |
| COCCCNC(=S)N1CCCN(c2nc3cc(C)ccc3cc2C#N)CC1 | inconclusive: 7.08 µM [inhibitor, partial curve] |  |
| N#Cc1cc2c(nc1SCc1cccnc1)CCC2 | inconclusive: 20 µM [inhibitor, single point] |  |
| O=c1c2cc(N3CCOCC3)ccc2[nH]c(=S)n1Cc1cccc(Cl)c1 | inconclusive: 7.08 µM [inhibitor, partial curve] |  |
| C/C(=N\Nc1nc(N2CCCCC2)nc(N2CCOCC2)n1)c1cccs1 | active: 10 µM |  |
| COc1ccc(OCc2cc(C(=O)NCCN3CCCc4ccccc43)no2)c(Cl)c1 | active: 11.2 µM |  |
| O=C(/C=C/C=C/c1ccccc1)CC1(O)C(=O)N(CCc2ccccc2)c2ccccc21 (stereo unspecified) | inconclusive: 8.91 µM [inhibitor, partial curve] |  |
| Cc1cc(NS(=O)(=O)c2ccc(NC(=O)/C=C/c3ccccc3Cl)cc2)no1 | inactive |  |
| O=C(c1cccc(Cl)c1)N1CCC(N2CCC(C(=O)N3CCCC3)CC2)CC1 | inconclusive: 31.6 µM [inhibitor, single point] |  |
| Cc1cc(C)cc(N2C(=O)CSC2c2cccs2)c1 (stereo unspecified) | inactive |  |
| CS(=O)(=O)C1=NSC2=NC(=O)/C(=C\c3ccc(OC(=O)c4ccco4)c(Br)c3)C(=N)N21 | inactive |  |
| Cc1cc(C)c2c(N)c3ccccc3nc2n1 | inconclusive: 22.4 µM [inhibitor, single point] |  |
| O=S(=O)(Nc1ccccc1O)c1ccc(-c2ccccc2)cc1 | inconclusive: 11.2 µM [inhibitor, partial curve, poor fit] |  |
| OCC1(Cc2cccc(C(F)(F)F)c2)CCN(Cc2cc(F)cc(F)c2)CC1 | inconclusive: 15.8 µM [inhibitor, single point] |  |
| COc1ccc(CCNC(=O)C(=O)NCC2OCCN2S(=O)(=O)c2ccc(OC)cc2)cc1 (stereo unspecified) | inconclusive: 31.6 µM [inhibitor, single point] |  |
| Cc1nc2ccccc2n1C1CCN(C(=O)Nc2ccccc2)CC1 | inconclusive: 31.6 µM [inhibitor, single point] |  |
| O=C(COC(=O)c1ccc(F)cc1F)NCCC1=CCCCC1 | inactive |  |
| CC(C)(C)n1nc2c(c1NC(=O)c1c(F)cccc1F)CS(=O)(=O)C2 | inactive |  |
| Oc1c(Cl)cc(Cl)cc1C(C#Cc1ccccc1)N1CCOCC1 (stereo unspecified) | inactive |  |
| COc1ccc(-c2c(C)c3cc(O)ccc3oc2=O)cc1OC | inconclusive: 31.6 µM [inhibitor, single point] |  |
| COc1cc(/C=N/NC(=S)Nc2cccc(C(=O)O)c2)ccc1O | inactive |  |
| COc1ccccc1NC(=O)COc1ccc(-c2nn(C)c(=O)c3ccccc23)cc1 | inconclusive: 31.6 µM [inhibitor, single point] |  |
| CCCn1c(=O)c2c(nc3n2CCCN3Cc2ccccc2)n(C)c1=O | inconclusive: 10 µM [inhibitor, partial curve] |  |

| Structure (SMILES) | Potency | activity change, negative = inhibition |
| --- | --- | --- |
| O=C1CCCC(=O)C1C(=O)C1CCN(S(=O)(=O)c2ccccc2)CC1 | inactive |  |
| CCCCOc1ccc(S(=O)(=O)n2c(C)nc3ccccc32)cc1 | inconclusive: 2.24 µM [inhibitor, single point] |  |
| Cc1cc(C)cc(-n2nnnc2SCC(=O)Nc2nc(-c3ccc(Cl)cc3)cs2)c1 | inconclusive: 1.78 µM [inhibitor, partial curve] |  |
| O=C(Nc1ccc2c(c1)CCC2)c1ccc(F)c(S(=O)(=O)N2CCOCC2)c1 | active: 15.8 µM |  |
| CCn1c2ccccc2c2nnc(SCCCn3c(=O)[nH]c4ccccc43)nc21 | inconclusive: 12.6 µM [inhibitor, partial curve] |  |
| Cc1ccc(OCCOCCN2CCCC2)c(Br)c1 |  | inconclusive: -33% [inhibitor] |
| COc1ccc(CCNC(=O)CN2C(=O)NC3(CCCCC3C)C2=O)cc1 (stereo unspecified) | inactive |  |
| CCN(CC)CCCN=Cc1c(O)n(-c2c(C)cccc2C)c(=O)c2ccccc12 | inconclusive: 12.6 µM [inhibitor, single point] |  |
| Cc1ccc(C)c(C(=O)NC2CC(C)(C)NC(C)(C)C2)c1 | inconclusive: 1.12 µM [inhibitor, partial curve] |  |
| Cc1cccc(C(=O)N/N=C/c2ccc[nH]2)c1 | inconclusive: 31.6 µM [inhibitor, single point] |  |
| C=CCn1c(SCC(=O)Nc2ccc(NC(C)=O)cc2)nc2sc(C)c(C)c2c1=O | inactive |  |
| CC(C)[C@H](NC(=O)OCc1ccccc1)C(=O)NC(C=O)Cc1ccccc1 (stereo partly specified) | inactive |  |
| O=C(Nc1ncc([N+](=O)[O-])s1)c1cccs1 | inconclusive: 31.6 µM [inhibitor, single point] and inconclusive: 11.2 µM [inhibitor, partial curve] |  |
| CCN(c1cccc(C)c1)S(=O)(=O)c1cccc(C(=O)O)c1 | inactive |  |
| CN(C)/C=N/n1cnc2ccccc2c1=O | inconclusive: 3.55 µM [inhibitor, single point] |  |
| COc1ccc(NC(=O)/C(C#N)=C/c2ccc(OCCN3CCOCC3)c(OC)c2)c(OC)c1 | inactive |  |
| CCOc1cc(-c2nc(-c3ccc(OC)cc3)no2)cc(OCC)c1OCC | inconclusive: 0.355 µM [inhibitor, partial curve, poor fit] |  |
| O=C(NCCc1cnn(-c2ccccc2)c1)c1cc(COc2c(F)cccc2F)on1 | inconclusive: 8.91 µM [inhibitor, partial curve, poor fit] |  |
| CN(C)CCCN1c2ccc3ccccc3c2Sc2cccc(Cl)c21 | inconclusive: 7.08 µM [inhibitor, partial curve] |  |
| O=C(CCN1CCOCC1)NNC(=O)Nc1cccc(C(F)(F)F)c1 | inactive |  |
| O=C1CCCN2N=C(SCC(=O)N3N=C(c4ccc(Br)cc4)CC3c3ccc(F)cc3)SC2=N1 (stereo unspecified) | inactive |  |
| CC(=O)Nc1cccc(N2C(=O)CC(N3CCC(C(=O)N4CCCCC4)CC3)C2=O)c1 (stereo unspecified) | inactive |  |
| Cc1cc(OC(=O)c2cccs2)c2c3c(c(=O)oc2c1)CCCC3 | inconclusive: 11.2 µM [inhibitor, partial curve] |  |
